# Laboratory results as given in PubChem BioAssay AID1347073 (National Center for Advancing Translational Sciences (NCATS), 2019).
# The whole screen tested about 45,000 compounds, of which about 200 (0.44%) were called active. Inconclusive results (about 7%) are left out. The call rests on the fitted dose curve; in most records, active means well fitted activation curve with a large enough effect; inconclusive means small, poorly fitted or top-dose-only effect; inactive means no such curve, though single readings can be large or run the other way. Some of the results follow.
# Assay: qHTS of TDP-43 Inhibitors: NCGC Sytravon Library Screen; further: 0% is about no effect; nearly all actives have a fitted effect of over 55% in size
# Conditions: yeast TDP-43 toxicity rescue, BacTiter-Glo growth, 24 h; series mostly up to 46.1 µM; growth rescue (activation): at the top concentration
# Method in brief: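 TDP-43-expressing yeast, pregrown in raffinose, seeded at OD600 0.02 in galactose medium with compound for 24 hr at 30 deg C. Growth read by BacTiter-Glo luminescence, so rescue of toxicity appears as activation.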
row,Compound,growth rescue (activation)
1,Cc1sc(NC(=O)CN(CCc2ccccc2)C(=O)C2CC2)c(C(N)=O)c1C,inactive: 5.39%
2,CCN(Cc1ccccc1)C(=O)COC(=O)c1cc(S(=O)(=O)Nc2c(C)n(C)n(-c3ccccc3)c2=O)ccc1C,inactive: 14.7%
3,CC(C)(C)c1ccc(S(=O)(=O)N2CCCC2C(=O)N2CCOCC2)cc1 (stereo not drawn),inactive: -5.36%
4,CC(NC(=O)c1ccc(OC2CCN(C(=O)c3cccnc3)CC2)cc1)C1CC1 (stereo not drawn),inactive: 11.4%
5,CN(CCCNC(=O)CSc1cc(=O)n(C)c2ccc(Cl)cc12)Cc1ccccc1,inactive: 4.46%
6,CCOC(=O)c1ccc2nc(C)c3c(c2c1)OC(C)C3 (stereo not drawn),inactive: -17%
7,CCOC(=O)C1CCN(CC(O)COCc2ccccc2)CC1 (stereo not drawn),inactive: 1.96%
8,CCOc1ccc(CN(C)C(=O)CNC(=O)C2CCCCC2)cc1OC,inactive: -2.33%
9,COc1ccccc1-c1ccc(=O)n(CC(=O)NCc2ccco2)n1,inactive: -7.65%
10,CN1CCN(c2ncnc3c2ncn3[C@H]2CN(Cc3ccc4c(c3)OCO4)C[C@@H](CO)O2)CC1,inactive: 5.29%
11,CCc1ccc(N(C(=O)c2csnn2)C(C(=O)NC2CCCCC2)c2ccncc2)cc1 (stereo not drawn),inactive: 8.91%
12,Cc1ccc(CNC(=O)CCC2CCCN(C(=O)CCC(F)(F)F)C2)o1 (stereo not drawn),inactive: 2.4%
13,O=C(c1ccc(N2CCOCC2)cc1[N+](=O)[O-])N1CCOCC1,inactive: -0.814%
14,Nc1ccc(S(=O)(=O)c2ccc(N)c(N)c2)cc1,inactive: 7.74%
15,O=C(Nc1ccncc1)c1ccccc1[N+](=O)[O-],inactive: -3.63%
16,CCCNC(=O)c1cc(C2CCCCN2C(=O)c2ccc(OC)cc2)on1 (stereo not drawn),inactive: 4.17%
17,CCCCNCc1nc2ccccc2c(=O)[nH]1,inactive: -9.82%
18,C/C(CC(=O)NCc1ccco1)=N\NC(=O)c1ccc(Cl)cc1Cl,inactive: -12%
19,O=C(O)c1ccc(S(=O)(=O)c2ccc3c(c2)C(=O)N(NC(=O)c2ccncc2)C3=O)cc1,inactive: 24.5%
20,COc1ccccc1-n1c(SCC(=O)N(C)C)nnc1-c1ccco1,inactive: -18.2%
21,O=C(COC(=O)/C=C/c1cccs1)Nc1ccc2ccccc2c1,inactive: 24%
22,CCOC(=O)Cc1csc(NC(=O)c2c(O)c3c(n(CC(C)C)c2=O)CCCC3)n1,inactive: 7.61%

row,Compound,growth rescue (activation)
1,Cc1ccc(S(=O)(=O)N2CCCCC2)cc1NC(=O)COC(=O)c1ccc(O)cc1,inactive: 5.75%
2,O=C(Nc1ccccc1C(F)(F)F)NC1(C(=O)N2CCOCC2)CCCCC1,inactive: -34.6%
3,CCc1ccccc1NC(=O)c1ccc2c(c1)CCN2S(C)(=O)=O,inactive: -4.08%
4,OC[C@@H]1CN(Cc2ccc(-c3ccccc3)cc2)C[C@H](n2cnc3c(NC4CCCC4)ncnc32)O1,inactive: -1.29%
5,Cc1ccc(-c2csc(N3C(=N)SCC3=O)n2)cc1,inactive: -1.96%
6,Cc1cccc(CSCCNC(=O)c2ccc(CN3CCOCC3)cc2)c1,inactive: 3.27%
7,c1ccc(C2=Nc3cccnc3C(c3ccccc3)=NN2)cc1,inactive: 14.2%
8,CCCCC(=O)NC(c1ccc(N(CC)CC)cc1)c1ccc2cccnc2c1O (stereo not drawn),inactive: -9.8%
9,COc1cccc2c(=O)cc(C)n(CC(=O)Nc3ccc(Br)cc3)c12,inactive: -0.77%
10,Oc1ccc(/C=N/N2CCN(C3c4ccccc4-c4ccccc43)CC2)c(O)c1,inactive: 2.54%
11,COC(=O)c1nnn(-c2nonc2N)c1CSc1nnc(N)s1,inactive: -9.11%
12,O=C(N/N=C/c1cccs1)c1cnccn1,inactive: -4.38%
13,O=C(COc1cc(Cl)c(Cl)cc1Cl)N1CCN(c2ccccn2)CC1,inactive: 3.5%
14,CC(=O)Nc1ccc(NC(=O)C(C)OC(=O)CNC(=O)c2sc3ccccc3c2Cl)cc1 (stereo not drawn),inactive: 3.51%
15,CN(CCOC(=O)c1cccc(Br)c1)C(C)(C)C,inactive: -16.7%
16,Cc1ccc(S(=O)(=O)N2CCCC2)cc1C(=O)N1CCN(Cc2ccccc2)CC1,inactive: -8.23%
17,CC(C)Cn1c(N)cc(=O)n(C)c1=O,inactive: 5.27%
18,CCC(=O)NC(=S)Nc1cccc(NC(=O)c2ccccc2C)c1,inactive: 7.36%
19,CCCCCNS(=O)(=O)c1cc(C)ccc1OC,inactive: 23%
20,O=C(C(=O)N1CCN(c2ccc(F)cc2)CC1)N1CCCCC1,inactive: -13.3%
21,COc1ccc(NC(=O)CCCc2c[nH]c3ccccc23)cc1OC,inactive: -2.96%
22,COc1cc(/C=C/C(=O)OCC(=O)c2c(N)n(C)c(=O)n(C)c2=O)ccc1O,inactive: 2.45%

row,Compound,growth rescue (activation)
1,CCOc1ccccc1OCCCC(=O)NCCc1ccc(S(N)(=O)=O)cc1,inactive: -2.82%
2,O=[N+]([O-])c1ccc(C(O)CN2CCN(C/C=C/c3ccccc3)CC2)cc1 (stereo not drawn),inactive: 12.9%
3,Cc1ccc(S(=O)(=O)N2CCOCC2)cc1NC(=O)COC(=O)Cc1ccsc1,inactive: -7.2%
4,Cc1ccccc1C1N(c2nccs2)C(=O)C2CCCN21 (stereo not drawn),inactive: 0.416%
5,O=C(NC1CCCCC1)C12CC3CC(CC(Cl)(C3)C1)C2,inactive: 18.4%
6,c1ccc(Cc2nnc(N3CCOCC3)c3ccccc23)cc1,inactive: 12.3%
7,CN=C1NN=C(c2cc(C)n(-c3ccc(Cl)cc3)c2C)CS1,inactive: 8.22%
8,CCn1nc(C)cc1C(=O)N(C)C1CCCN(Cc2ccccc2F)C1 (stereo not drawn),inactive: 6%
9,NS(=O)(=O)c1ccc(NC(=O)COC(=O)C2CC2)cc1,inactive: 8.56%
10,O=C(CC1CCOCC1)Nc1ccc(Cl)c(Cl)c1,inactive: 4.39%
11,Cc1cc(C)cc(NC(=O)CCn2ccnc2)c1,inactive: 9.8%
12,CCOC(=O)c1ccccc1N1C(=O)C2Sc3[nH]c(=O)sc3C(/C=C/c3ccccc3)C2C1=O (stereo not drawn),inactive: 16.1%
13,O=[N+]([O-])c1cc(C(F)(F)F)cc([N+](=O)[O-])c1NCc1cccnc1,inactive: 6.38%
14,COc1ccc2oc(=O)c(-c3csc(Nc4ccc(O)cc4)n3)cc2c1,inactive: -18.9%
15,CC(C)[C@H](NC(=O)c1ccco1)C(=O)NCc1ccccc1,inactive: -8.98%
16,O=C(CCC1CCCCC1)Nc1cccc(C(=O)Nc2ccc(C(=O)O)cc2)c1,inactive: -9.63%
17,Cc1csc(NC(=O)C2CCCN2C(=O)OCC(C)C)n1 (stereo not drawn),inactive: 7.46%
18,Cc1nc2ccccc2c2c1C(=O)N(c1ccc(C(=O)O)cc1)C2=O,inactive: -8.46%
19,O=C(NCc1cccnc1)c1ccc2c(c1)N(Cc1ccccc1)CCS2,inactive: 12.4%
20,COc1cc(C(O)c2nc(-c3cccc4cccnc34)cs2)ccc1F (stereo not drawn),inactive: 14.7%
21,Cc1occc1C(=O)NNS(=O)(=O)c1ccc([N+](=O)[O-])cc1,inactive: 14%
22,CCCn1c(SCC(=O)Nc2ccc3c(c2)OCO3)n[nH]c1=O,inactive: 2.43%

row,Compound,growth rescue (activation)
1,O=C(NC1CCCCC1)C1CCCN(S(=O)(=O)c2ccc(Br)s2)C1 (stereo not drawn),inactive: 3.94%
2,COc1ccc(/C=C/C=C2\NC(=S)NC2=O)cc1,inactive: 4.48%
3,COc1ccc(CN2CN(S(=O)(=O)c3cccs3)c3nc4ccccc4nc32)cc1,inactive: 7.87%
4,CCc1nnc(NC(=O)CSc2nc(-c3ccccc3)c(-c3ccccc3)o2)s1,inactive: 11.9%
5,Cc1ccc(Cl)cc1S(=O)(=O)N1CCC(C(=O)NC2CCN(Cc3ccccc3)CC2)CC1,inactive: 5.56%
6,COc1cc(C(=O)NCC(=O)Nc2c(C)cccc2C)ccc1OCC(=O)N1CCOCC1,inactive: 4.43%
7,COc1ccc2nc(C)cc(N3CCN(c4ccccc4)CC3)c2c1,inactive: 3.77%
8,O=C(NCc1ccco1)C1Cc2c(-c3cccc(F)c3)ccnc2O1 (stereo not drawn),inactive: 23.2%
9,CCCCC(=O)N(C)c1c(CC)nc2c(OCC(=O)c3ccc(Cl)cc3Cl)cccn12,inactive: -5.95%
10,CN(C)c1ccc(C=C2C(=O)OC3(CCCC3)OC2=O)cc1,inactive: -9.93%
11,COc1cc(/C=N/NC(=O)CCN2CCN(C(c3ccccc3)c3ccccc3)CC2)ccc1O,inactive: -10.3%
12,O=C(CCCNC(=O)c1ccc(Cl)cc1)Nc1nccs1,inactive: 2.5%
13,COc1cccc(CC(NC(C)=O)C(=O)NC2CCN(C(=O)c3ccc(Cl)cc3)CC2)c1 (stereo not drawn),inactive: 5.51%
14,Cc1ccc(CNc2nc(-c3cccnc3)nc3ccccc23)cc1,inactive: 3.63%
15,CC(C)(C)c1ccc(Cn2nnc3c(=O)[nH]c(C4CCCN(C(=O)c5cccs5)C4)nc32)cc1 (stereo not drawn),inactive: -0.362%
16,CC(=O)c1ccc(Nc2cc(C)nc3c(C)cc(C)cc23)cc1,inactive: 19.9%
17,COc1ccc(O)c(/C=N/NC(=O)c2ccc(CSc3nc(C)cc(C)n3)cc2)c1,inactive: 8.49%
18,CCn1c(SCC(=O)N2CCCCCC2)nc2ccccc2c1=O,inactive: -1.62%
19,Cc1noc(C)c1C(=O)N1CCCC(C(=O)c2cccc(OC(C)C)c2)C1 (stereo not drawn),inactive: 3.52%
20,CCc1cc2cccc(C)c2nc1SCC(=O)Nc1cc(C)on1,inactive: 16.6%
21,CCn1cc(C(=O)N2CCCc3ccccc32)c2cc(OC)c(OC)cc2c1=O,inactive: 24.5%
22,CCOC(=O)c1c(CSCc2ccccc2)oc2ccc(O)c(CN(C)C)c12,inactive: 2.62%

row,Compound,growth rescue (activation)
1,CCOc1ccc(C(C)C)cc1S(=O)(=O)n1ccnc1C,inactive: 0.573%
2,CC(C)(Oc1ccc(Cl)cc1)C(=O)N1CCN(c2ccccn2)CC1,inactive: 25.4%
3,COc1cccc(/C(C)=N/NS(=O)(=O)c2ccc(Cl)cc2)c1,inactive: 5.12%
4,CCOc1ccccc1NC(=O)CCCNC(=O)Cn1cnc2sc(C)c(C)c2c1=O,inactive: -14.8%
5,CC1CN(Cc2csc(-c3ccc(Cl)cc3)n2)CC(C)O1 (stereo not drawn),inactive: 3.09%
6,CN(C)S(=O)(=O)c1cccc(NC(=O)CSc2nncn2C)c1,inactive: 4.49%
7,COc1cccc(/C=N/Nc2nc3ccccc3n3cnnc23)c1,inactive: -5.37%
8,Cn1nc(C(C)(C)C)c([N+](=O)[O-])c1C(N)=O,inactive: 4.11%
9,CN(CCCNC(=O)CSc1cc(=O)n(C)c2cc(Cl)ccc12)Cc1ccccc1,inactive: 5.09%
10,CC(NC(=O)c1ccccc1NC(=O)CN1CCc2ccccc2C1)c1ccccc1 (stereo not drawn),inactive: 18.1%
11,CCN(CC)C(=O)c1ccc2nc([C@@H]3O[C@H](CO)[C@H](O)[C@H](O)[C@H]3O)[nH]c2c1,inactive: -5.43%
12,CCc1nc2c(OCCOc3ccccc3)cccn2c1N(C)C(=O)c1ccccc1F,inactive: 6.11%
13,CCCCNC1=CC(=O)C(=O)c2ccccc21,inactive: 9.09%
14,COc1ccc(Cl)cc1C(=O)NNC(=S)NC1CCCC1,inactive: 25.9%
15,O=c1c2[nH]c3ccccc3c2nc2n1CCCS2,inactive: 0.881%
16,Cc1cnc(NC(=O)c2ccc3ncsc3c2)s1,inactive: -4.72%
17,COc1ccc(CN2C[C@@H](CO)O[C@@H](n3cnc4c(N5CCOCC5)ncnc43)C2)cc1,inactive: -8.18%
18,COc1ccc(N2CC(C(=O)OCC(=O)Nc3cc(C)on3)CC2=O)cc1 (stereo not drawn),inactive: 0.974%
19,COC(=O)NCC(C)OC(=O)Nc1ccc(Cl)cc1 (stereo not drawn),inactive: -15%
20,Cc1ccc(C(=O)NCC2CCCO2)cc1[N+](=O)[O-] (stereo not drawn),inactive: -8.24%
